Part of at least one peptide drawing is inferred or uncertain, most often the ends. At least one compound was matched to its structure with a doubt left. Square brackets hold non-standard residues; d marks the D form. Ends that are not written are not given here. Peptide text beside a SMILES is read from it. Nle = CCCC[C@H](N)C(=O)O
Columns and labels:
Type in all cases: cell-based
MCR2 = target: T1, MCR2 (Homo sapiens, UniProt Q01718); experiment: cAMP production (LANCE cAMP assay) in CHO-MCR2 cells
T1 construct: expressed in transfected cells; host or cells: CHO (CHO-MCR2)
T1 sequence (Q01718 whole entry): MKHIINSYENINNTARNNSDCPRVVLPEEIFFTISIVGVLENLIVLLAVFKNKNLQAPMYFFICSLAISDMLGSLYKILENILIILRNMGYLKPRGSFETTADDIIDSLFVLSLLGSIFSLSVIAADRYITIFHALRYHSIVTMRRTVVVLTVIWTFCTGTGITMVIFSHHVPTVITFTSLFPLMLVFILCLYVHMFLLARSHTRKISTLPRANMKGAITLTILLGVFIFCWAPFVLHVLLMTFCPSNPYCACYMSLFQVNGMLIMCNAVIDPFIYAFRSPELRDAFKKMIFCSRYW
T1 sequence (Q8TCY5 whole entry partner): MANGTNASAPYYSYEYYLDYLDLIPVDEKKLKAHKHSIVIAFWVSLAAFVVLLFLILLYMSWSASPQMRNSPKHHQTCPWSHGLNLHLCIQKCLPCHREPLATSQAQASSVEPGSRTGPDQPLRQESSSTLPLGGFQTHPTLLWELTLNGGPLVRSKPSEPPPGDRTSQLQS
Description: The manufacturer's recommended protocol was followed.

MCR4 = target: T2, MCR4 (Homo sapiens, UniProt P32245); experiment: cAMP production (LANCE cAMP assay) in CHO-MCR4 cells
T2 construct: expressed in transfected cells; host or cells: CHO (CHO-MCR4)
T2 sequence (P32245 whole entry): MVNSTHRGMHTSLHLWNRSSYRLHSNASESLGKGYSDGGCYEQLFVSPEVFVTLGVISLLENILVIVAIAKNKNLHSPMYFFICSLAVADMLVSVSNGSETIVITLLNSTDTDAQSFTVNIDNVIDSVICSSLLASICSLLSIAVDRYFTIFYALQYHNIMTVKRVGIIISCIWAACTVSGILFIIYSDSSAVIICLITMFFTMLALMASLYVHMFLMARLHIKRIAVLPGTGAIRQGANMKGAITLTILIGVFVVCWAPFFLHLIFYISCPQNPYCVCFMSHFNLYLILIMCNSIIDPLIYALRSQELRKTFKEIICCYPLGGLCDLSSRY

MCR3 = target: T3, MCR3 (Homo sapiens, UniProt P41968); experiment: cAMP production (LANCE cAMP assay) in CHO-MCR3 cells
T3 construct: expressed in transfected cells; host or cells: CHO (CHO-MCR3)
T3 sequence (P41968 whole entry): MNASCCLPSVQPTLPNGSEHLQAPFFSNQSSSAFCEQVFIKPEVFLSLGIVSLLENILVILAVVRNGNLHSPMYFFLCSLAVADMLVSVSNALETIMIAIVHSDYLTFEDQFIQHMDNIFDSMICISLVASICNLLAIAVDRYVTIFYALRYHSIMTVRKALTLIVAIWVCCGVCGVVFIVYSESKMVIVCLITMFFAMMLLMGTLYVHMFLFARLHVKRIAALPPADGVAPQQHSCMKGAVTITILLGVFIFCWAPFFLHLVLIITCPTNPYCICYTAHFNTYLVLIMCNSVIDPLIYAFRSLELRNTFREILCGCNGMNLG

[1] = Cell Pool C (optimized cell bank)
[2] = Cell Pool B (partially enriched for MCR expression)

Molecule: CCCC[C@H](NC(=O)[C@H](CO)NC(=O)[C@H](Cc1ccc(O)cc1)NC(=O)[C@H](CO)NC(=O)[C@H](CO)NC(=O)CNC(=O)CNC(=O)CNC(=O)CNC(=O)[C@H](CO)NC(=O)CNC(=O)CNC(=O)CNC(=O)CNC(=O)[C@@H]1CCCN1C(=O)[C@H](Cc1ccc(O)cc1)NC(=O)[C@@H](NC(=O)[C@H](CCCCN)NC(=O)[C@@H](NC(=O)[C@@H]1CCCN1C(=O)[C@H](CCCNC(=N)N)NC(=O)[C@H](CCCNC(=N)N)NC(=O)[C@H](CCCCN)NC(=O)[C@H](CCCCN)NC(=O)CNC(=O)[C@@H](NC(=O)[C@@H]1CCCN1C(=O)[C@H](CCCCN)NC(=O)CNC(=O)[C@H](Cc1c[nH]c2ccccc12)NC(=O)[C@H](CCCNC(=N)N)NC(=O)[C@H](Cc1ccccc1)NC(=O)[C@H](Cc1c[nH]cn1)NC(=O)[C@H](CCC(=O)O)NC(=O)[C@H](CCSC)NC(=O)[C@H](CO)NC(=O)[C@H](Cc1ccc(O)cc1)NC(=O)[C@@H](N)CO)C(C)C)C(C)C)C(C)C)C(=O)N[C@@H](CCC(=O)O)C(=O)N[C@@H](Cc1c[nH]cn1)C(=O)N[C@H](Cc1ccccc1)C(=O)N[C@@H](CCCNC(=N)N)C(=O)N[C@@H](Cc1c[nH]c2ccccc12)C(=O)NCC(=O)N[C@@H](CCCCN)C(=O)N1CCC[C@H]1C(=O)N[C@H](C(=O)O)C(C)C [compound 26]
- EC50 (MCR2; [1]): 0.21 nM
- EC50 (MCR4; [1]): 1.8 nM

Molecule: CCCC[C@H](NC(=O)[C@H](CO)NC(=O)[C@H](Cc1ccc(O)cc1)NC(=O)[C@H](CO)NC(=O)[C@H](CO)NC(=O)CNC(=O)CNC(=O)CNC(=O)CNC(=O)[C@H](C)NC(=O)[C@@H](NC(=O)[C@H](CC(C)C)NC(=O)CNC(=O)[C@H](C)NC(=O)[C@@H]1CCCN1C(=O)[C@H](CO)NC(=O)CNC(=O)CNC(=O)CNC(=O)CNC(=O)[C@@H]1CCCN1C(=O)[C@H](Cc1ccc(O)cc1)NC(=O)[C@@H](NC(=O)[C@H](CCCCN)NC(=O)[C@@H](NC(=O)[C@@H]1CCCN1C(=O)[C@H](CCCNC(=N)N)NC(=O)[C@H](CCCNC(=N)N)NC(=O)[C@H](CCCCN)NC(=O)[C@H](CCCCN)NC(=O)CNC(=O)[C@@H](NC(=O)[C@@H]1CCCN1C(=O)[C@H](CCCCN)NC(=O)CNC(=O)[C@H](Cc1c[nH]c2ccccc12)NC(=O)[C@H](CCCNC(=N)N)NC(=O)[C@H](Cc1ccccc1)NC(=O)[C@H](Cc1c[nH]cn1)NC(=O)[C@H](CCC(=O)O)NC(=O)[C@H](CCSC)NC(=O)[C@H](CO)NC(=O)[C@H](Cc1ccc(O)cc1)NC(=O)[C@@H](N)CO)C(C)C)C(C)C)C(C)C)C(C)C)C(=O)N[C@@H](CCC(=O)O)C(=O)N[C@@H](Cc1c[nH]cn1)C(=O)N[C@H](Cc1ccccc1)C(=O)N[C@@H](CCCNC(=N)N)C(=O)N[C@@H](Cc1c[nH]c2ccccc12)C(=O)NCC(=O)N[C@@H](CCCCN)C(=O)N1CCC[C@H]1C(=O)N[C@H](C(=O)O)C(C)C [compound 29]
- EC50 (MCR2; [2]): 0.05 nM
- EC50 (MCR3; [2]): 1 nM

Molecule: CCCC[C@H](NC(=O)CCNC(=O)CNC(=O)CCNC(=O)[C@H](Cc1c[nH]c2ccccc12)NC(=O)[C@H](CCCNC(=N)N)NC(=O)[C@@H](Cc1ccccc1)NC(=O)[C@H](Cc1c[nH]cn1)NC(=O)[C@H](CCC(=O)O)NC(=O)[C@@H](N)CCCC)C(=O)N[C@@H](CCC(=O)O)C(=O)N[C@@H](Cc1c[nH]cn1)C(=O)N[C@H](Cc1ccccc1)C(=O)N[C@@H](CCCNC(=N)N)C(=O)N[C@@H](Cc1c[nH]c2ccccc12)C(=O)O [compound 44] (HELM PEPTIDE1{[Nle].E.H.[dF].R.W.[bAla].G.[bAla].[Nle].E.H.[dF].R.W}$$$$V2.0; N-terminus and C-terminus assumed)
- EC50 (MCR2; [2]): > 20 nM

Molecule: CCCC[C@H](N)C(=O)N[C@@H](CCC(=O)O)C(=O)N[C@@H](Cc1c[nH]cn1)C(=O)N[C@H](Cc1ccccc1)C(=O)N[C@@H](CCCNC(=N)N)C(=O)N[C@@H](Cc1c[nH]c2ccccc12)C(=O)NCCC(=O)NCC(=O)NCCC(=O)N[C@@H](CO)C(=O)N[C@@H](Cc1ccc(O)cc1)C(=O)N[C@@H](CO)C(=O)N[C@@H](CCSC)C(=O)N[C@@H](CCC(=O)O)C(=O)N[C@@H](Cc1c[nH]cn1)C(=O)N[C@@H](Cc1ccccc1)C(=O)N[C@@H](CCCNC(=N)N)C(=O)N[C@@H](Cc1c[nH]c2ccccc12)C(=O)NCC(=O)N[C@@H](CCCCN)C(=O)N1CCC[C@H]1C(=O)N[C@H](C(=O)NCC(=O)N[C@@H](CCCCN)C(=O)N[C@@H](CCCCN)C(=O)N[C@@H](CCCNC(=N)N)C(=O)N[C@@H](CCCNC(=N)N)C(=O)N1CCC[C@H]1C(=O)N[C@H](C(=O)N[C@@H](CCCCN)C(=O)N[C@H](C(=O)N[C@@H](Cc1ccc(O)cc1)C(=O)N1CCC[C@H]1C(=O)O)C(C)C)C(C)C)C(C)C [compound 45]
- EC50 (MCR2; [2]): 18.5 nM
- EC50 (MCR4; [2]): 2.4 nM

Molecule: CCCC[C@H](N)C(=O)N[C@@H](CCC(=O)O)C(=O)N[C@@H](Cc1c[nH]cn1)C(=O)N[C@H](Cc1ccccc1)C(=O)N[C@@H](CCCNC(=N)N)C(=O)N[C@@H](Cc1c[nH]c2ccccc12)C(=O)N[C@@H](CO)C(=O)N[C@@H](Cc1ccc(O)cc1)C(=O)N[C@@H](CO)C(=O)N[C@@H](CCSC)C(=O)N[C@@H](CCC(=O)O)C(=O)N[C@@H](Cc1c[nH]cn1)C(=O)N[C@@H](Cc1ccccc1)C(=O)N[C@@H](CCCNC(=N)N)C(=O)N[C@@H](Cc1c[nH]c2ccccc12)C(=O)NCC(=O)N[C@@H](CCCCN)C(=O)N1CCC[C@H]1C(=O)N[C@H](C(=O)NCC(=O)N[C@@H](CCCCN)C(=O)N[C@@H](CCCCN)C(=O)N[C@@H](CCCNC(=N)N)C(=O)N[C@@H](CCCNC(=N)N)C(=O)N1CCC[C@H]1C(=O)N[C@H](C(=O)N[C@@H](CCCCN)C(=O)N[C@H](C(=O)N[C@@H](Cc1ccc(O)cc1)C(=O)N1CCC[C@H]1C(=O)O)C(C)C)C(C)C)C(C)C [compound 46]
- EC50 (MCR2; [2]): > 20 nM
- EC50 (MCR3; [2]): 6.8 nM

Molecule: CCCC[C@H](NC(=O)[C@H](CO)NC(=O)[C@H](Cc1ccc(O)cc1)NC(=O)[C@H](CO)NC(=O)[C@@H]1CCCN1C(=O)[C@H](Cc1ccc(O)cc1)NC(=O)[C@@H](NC(=O)[C@H](CCCCN)NC(=O)[C@@H](NC(=O)[C@@H]1CCCN1C(=O)[C@H](CCCNC(=N)N)NC(=O)[C@H](CCCNC(=N)N)NC(=O)[C@H](C)NC(=O)[C@H](C)NC(=O)CNC(=O)[C@@H](NC(=O)[C@@H]1CCCN1C(=O)[C@H](CCCCN)NC(=O)CNC(=O)[C@H](Cc1c[nH]c2ccccc12)NC(=O)[C@H](CCCNC(=N)N)NC(=O)[C@H](Cc1ccccc1)NC(=O)[C@H](Cc1c[nH]cn1)NC(=O)[C@H](CCC(=O)O)NC(=O)[C@H](CCSC)NC(=O)[C@H](CO)NC(=O)[C@H](Cc1ccc(O)cc1)NC(=O)[C@@H](N)CO)C(C)C)C(C)C)C(C)C)C(=O)N[C@@H](CCC(=O)O)C(=O)N[C@@H](Cc1c[nH]cn1)C(=O)N[C@H](Cc1ccccc1)C(=O)N[C@@H](CCCNC(=N)N)C(=O)N[C@@H](Cc1c[nH]c2ccccc12)C(=O)NCC(=O)N[C@@H](CCCCN)C(=O)N1CCC[C@H]1C(=O)N[C@H](C(=O)O)C(C)C [compound 53] (HELM PEPTIDE1{S.Y.S.M.E.H.F.R.W.G.K.P.V.G.A.A.R.R.P.V.K.V.Y.P.S.Y.S.[Nle].E.H.[dF].R.W.G.K.P.V}$$$$V2.0; N-terminus and C-terminus assumed)
- EC50 (MCR3; [1]): 0.72 nM

Molecule: CCCC[C@H](NC(=O)[C@H](CO)NC(=O)[C@H](Cc1ccc(O)cc1)NC(=O)[C@H](CO)NC(=O)[C@H](CO)NC(=O)CNC(=O)CNC(=O)CNC(=O)[C@@H]1CCCN1C(=O)[C@H](Cc1ccc(O)cc1)NC(=O)[C@@H](NC(=O)[C@H](CCCCN)NC(=O)[C@@H](NC(=O)[C@H](C)NC(=O)[C@H](C)NC(=O)[C@H](C)NC(=O)[C@H](CCCCN)NC(=O)[C@H](CCCCN)NC(=O)CNC(=O)[C@@H](NC(=O)[C@@H]1CCCN1C(=O)[C@H](CCCCN)NC(=O)CNC(=O)[C@H](Cc1c[nH]c2ccccc12)NC(=O)[C@H](CCCNC(=N)N)NC(=O)[C@H](Cc1ccccc1)NC(=O)[C@H](Cc1c[nH]cn1)NC(=O)[C@H](CCC(=O)O)NC(=O)[C@H](CCSC)NC(=O)[C@H](CO)NC(=O)[C@H](Cc1ccc(O)cc1)NC(=O)[C@@H](N)CO)C(C)C)C(C)C)C(C)C)C(=O)N[C@@H](CCC(=O)O)C(=O)N[C@@H](Cc1c[nH]cn1)C(=O)N[C@H](Cc1ccccc1)C(=O)N[C@@H](CCCNC(=N)N)C(=O)N[C@@H](Cc1c[nH]c2ccccc12)C(=O)NCC(=O)N[C@@H](CCCCN)C(=O)N1CCC[C@H]1C(=O)N[C@H](C(=O)O)C(C)C [compound 58]
- EC50 (MCR2; [1]): 8.6 nM
- EC50 (MCR4; [1]): 2.4 nM

Molecule: Ac-SYS[Nle]EH[dF]RWGKPVGGGGSGGGGSSYSMEHFRWGKPVGKKRRPVKVYP [compound 23]
- EC50 (MCR4; [1]): 2.2 nM

Molecule: Ac-SYS[Nle]EH[dF]RWGKPVGGGGSPLGLWAGGGGSSYSMEHFRWGKPVGKKRRPVKVYP [compound 25]
- EC50 (MCR2; [2]): 76 nM

Molecule: Ac-SYS[Nle]EH[dF]RWGKPVGGGGSRRKRGGGGSSYSMEHFRWGKPVGKKRRPVKVYP [compound 24]
- EC50 (MCR2; [2]): 21 nM

Molecule: SYSMEHFRWGKPVGAARRPVKVYPGGGGSGGSYS[Nle]EH[dF]RWGKPV [compound 61]
- EC50 (MCR2; [1]): 4.1 nM
- EC50 (MCR4; [1]): 2.3 nM

Molecule: SYSMEHFRWGKPVGKKAAAVKVYPGGGGSGGGGSSYS[Nle]EH[dF]RWGKPV [compound 65]
- EC50 (MCR2; [1]): 15 nM

Molecule: SYSMEHFRWGKPVGKKRRAVKVYPGGGGSGGSYS[Nle]EH[dF]RWGKPV [compound 60]
- EC50 (MCR2; [1]): 0.06 nM

Molecule: SYSMEHFRWGKPVGKKRRAVKVYPGGGSSYS[Nle]EH[dF]RWGKPV [compound 56]
- EC50 (MCR2; [1]): 0.07 nM
- EC50 (MCR4; [1]): 1.8 nM

Molecule: SYSMEHFRWGKPVGKKRRPVKVYPGGGGSPLGLWAGGGGSSYS[Nle]EH[dF]RWGKPV [compound 28]
- EC50 (MCR2; [2]): 0.318 nM

Molecule: SYSMEHFRWGKPVGKKRRPVKVYPGGGGSRRKRGGGGSSYS[Nle]EH[dF]RWGKPV [compound 27]
- EC50 (MCR2; [2]): 1 nM
- EC50 (MCR4; [2]): 1.9 nM

Molecule: SYSMEHFRWGKPVGKKRRPVKVYPGGGGSRRKRSYSMEHFRWGKPV [compound 41]
- EC50 (MCR2; [2]): 1.08 nM

Molecule: SYSMEHFRWGKPVGKKRRPVKVYPGGGGSRRKRSYS[Nle]EH[dF]RWGKPV [compound 38]
- EC50 (MCR2; [2]): 1.05 nM
- EC50 (MCR4; [2]): 1.6 nM

Reference: patent US11207385B2, “Melanocortins and methods of use thereof” (Aequus Biopharma, Inc., priority 2015, dated 2021)
